Data reported in publication PMC9098178, “SAR of Novel 3-Arylisoquinolinones: meta-Substitution on the Aryl Ring Dramatically Enhances Antiproliferative Activity through Binding to Microtubules” (Journal of Medicinal Chemistry, 2022).

System: HepG2 cells
Assay: Cell cycle analysis by flow cytometry
Conditions: 5 μM, 24 h treatment

O=c1[nH]c(-c2cccc(F)c2)cc2cc(F)ccc12 [compound 4, 6-Fluoro-3-(3-fluorophenyl)isoquinolin-1(2H)-one]
cells in G0/G1 phase: 11.7 ± 2.9% | cells in G2/M phase: 62.2 ± 6.3%
